Data: publication PMC8262918
Where a chain is given by its changes, count along the chain named. Results are given in words; binding and its absence hold for the method and conditions named. Binding seen in cells or lysates may run through a third protein. Some entries that bind do so weakly or less than the wild type. Tags and fused reporters may be left off the sequences shown.

Protein sequences, listed by entry. Tags and fused reporters are not part of them.
UniProt Q8IUC6: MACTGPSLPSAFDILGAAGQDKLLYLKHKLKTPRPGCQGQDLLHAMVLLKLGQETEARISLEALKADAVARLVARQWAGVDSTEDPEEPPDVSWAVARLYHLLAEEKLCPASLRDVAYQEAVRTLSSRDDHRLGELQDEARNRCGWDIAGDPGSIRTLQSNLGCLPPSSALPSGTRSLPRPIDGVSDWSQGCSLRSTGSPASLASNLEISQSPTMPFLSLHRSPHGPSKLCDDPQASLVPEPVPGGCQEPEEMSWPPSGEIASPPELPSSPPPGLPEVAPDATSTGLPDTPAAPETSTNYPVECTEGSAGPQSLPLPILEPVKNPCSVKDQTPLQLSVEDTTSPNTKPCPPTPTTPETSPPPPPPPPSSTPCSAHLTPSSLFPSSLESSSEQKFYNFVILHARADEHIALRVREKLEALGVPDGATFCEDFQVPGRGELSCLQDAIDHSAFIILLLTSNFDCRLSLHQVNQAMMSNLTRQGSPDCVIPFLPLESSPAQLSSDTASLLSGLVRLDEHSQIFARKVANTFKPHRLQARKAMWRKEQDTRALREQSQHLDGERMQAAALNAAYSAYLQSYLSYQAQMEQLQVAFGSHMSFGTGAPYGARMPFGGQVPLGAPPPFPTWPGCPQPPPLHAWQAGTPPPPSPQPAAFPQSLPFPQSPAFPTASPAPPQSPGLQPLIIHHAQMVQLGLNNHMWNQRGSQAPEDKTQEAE

B1: HA-tagged WT DDX21 (protein, UniProt Q9NR30-1 1-783)
chain: MPGKLRSDAGLESDTAMKKGETLRKQTEEKEKKEKPKSDKTEEIAEEEETVFPKAKQVKKKAEPSEVDMNSPKSKKAKKKEEPSQNDISPKTKSLRKKKEPIEKKVVSSKTKKVTKNEEPSEEEIDAPKPKKMKKEKEMNGETREKSPKLKNGFPHPEPDCNPSEAASEESNSEIEQEIPVEQKEGAFSNFPISEETIKLLKGRGVTFLFPIQAKTFHHVYSGKDLIAQARTGTGKTFSFAIPLIEKLHGELQDRKRGRAPQVLVLAPTRELANQVSKDFSDITKKLSVACFYGGTPYGGQFERMRNGIDILVGTPGRIKDHIQNGKLDLTKLKHVVLDEVDQMLDMGFADQVEEILSVAYKKDSEDNPQTLLFSATCPHWVFNVAKKYMKSTYEQVDLIGKKTQKTAITVEHLAIKCHWTQRAAVIGDVIRVYSGHQGRTIIFCETKKEAQELSQNSAIKQDAQSLHGDIPQKQREITLKGFRNGSFGVLVATNVAARGLDIPEVDLVIQSSPPKDVESYIHRSGRTGRAGRTGVCICFYQHKEEYQLVQVEQKAGIKFKRIGVPSATEIIKASSKDAIRLLDSVPPTAISHFKQSAEKLIEEKGAVEALAAALAHISGATSVDQRSLINSNVGFVTMILQCSIEMPNISYAWKELKEQLGEEIDSKVKGMVFLKGKLGVCFDVPTASVTEIQEKWHDSRRWQLSVATEQPELEGPREGYGGFRGQREGSRGFRGQRDGNRRFRGQREGSRGPRGQRSGGGNKSNRSQNKGQKRSFSKAFGQ
B2: HA-tagged DDX21 127–784 (domain or fragment, UniProt Q9NR30-1 127-783)
chain: APKPKKMKKEKEMNGETREKSPKLKNGFPHPEPDCNPSEAASEESNSEIEQEIPVEQKEGAFSNFPISEETIKLLKGRGVTFLFPIQAKTFHHVYSGKDLIAQARTGTGKTFSFAIPLIEKLHGELQDRKRGRAPQVLVLAPTRELANQVSKDFSDITKKLSVACFYGGTPYGGQFERMRNGIDILVGTPGRIKDHIQNGKLDLTKLKHVVLDEVDQMLDMGFADQVEEILSVAYKKDSEDNPQTLLFSATCPHWVFNVAKKYMKSTYEQVDLIGKKTQKTAITVEHLAIKCHWTQRAAVIGDVIRVYSGHQGRTIIFCETKKEAQELSQNSAIKQDAQSLHGDIPQKQREITLKGFRNGSFGVLVATNVAARGLDIPEVDLVIQSSPPKDVESYIHRSGRTGRAGRTGVCICFYQHKEEYQLVQVEQKAGIKFKRIGVPSATEIIKASSKDAIRLLDSVPPTAISHFKQSAEKLIEEKGAVEALAAALAHISGATSVDQRSLINSNVGFVTMILQCSIEMPNISYAWKELKEQLGEEIDSKVKGMVFLKGKLGVCFDVPTASVTEIQEKWHDSRRWQLSVATEQPELEGPREGYGGFRGQREGSRGFRGQRDGNRRFRGQREGSRGPRGQRSGGGNKSNRSQNKGQKRSFSKAFGQ
B3: HA-tagged DDX1 (protein, UniProt Q92499 1-740)
chain: MAAFSEMGVMPEIAQAVEEMDWLLPTDIQAESIPLILGGGDVLMAAETGSGKTGAFSIPVIQIVYETLKDQQEGKKGKTTIKTGASVLNKWQMNPYDRGSAFAIGSDGLCCQSREVKEWHGCRATKGLMKGKHYYEVSCHDQGLCRVGWSTMQASLDLGTDKFGFGFGGTGKKSHNKQFDNYGEEFTMHDTIGCYLDIDKGHVKFSKNGKDLGLAFEIPPHMKNQALFPACVLKNAELKFNFGEEEFKFPPKDGFVALSKAPDGYIVKSQHSGNAQVTQTKFLPNAPKALIVEPSRELAEQTLNNIKQFKKYIDNPKLRELLIIGGVAARDQLSVLENGVDIVVGTPGRLDDLVSTGKLNLSQVRFLVLDEADGLLSQGYSDFINRMHNQIPQVTSDGKRLQVIVCSATLHSFDVKKLSEKIMHFPTWVDLKGEDSVPDTVHHVVVPVNPKTDRLWERLGKSHIRTDDVHAKDNTRPGANSPEMWSEAIKILKGEYAVRAIKEHKMDQAIIFCRTKIDCDNLEQYFIQQGGGPDKKGHQFSCVCLHGDRKPHERKQNLERFKKGDVRFLICTDVAARGIDIHGVPYVINVTLPDEKQNYVHRIGRVGRAERMGLAISLVATEKEKVWYHVCSSRGKGCYNTRLKEDGGCTIWYNEMQLLSEIEEHLNCTISQVEPDIKVPVDEFDGKVTYGQKRAAGGGSYKGHVDILAPTVQELAALEKEAQTSFLHLGYLPNQLFRTF
B4: HA-tagged DDX21 1–125 (domain or fragment, UniProt Q9NR30-1 1-125)
chain: MPGKLRSDAGLESDTAMKKGETLRKQTEEKEKKEKPKSDKTEEIAEEEETVFPKAKQVKKKAEPSEVDMNSPKSKKAKKKEEPSQNDISPKTKSLRKKKEPIEKKVVSSKTKKVTKNEEPSEEEI

Key:
Test in all cases: co-IP; HeLa cells cotransfected (24 or 36 h); lysis buffer 150 mM NaCl, 50 mM Tris-HCl pH 8.0, 5 mM EDTA, 0.5% NP-40; precipitated with anti-Flag antibody and protein G agarose overnight at 4°C; four washes with lysis buffer; immunoblot of the tagged prey
[1] = target: T1, Flag-tagged DDX21 127–784 (human) (UniProt Q9NR30)
T1 sequence: B2 chain

[2] = target: T2, Flag-tagged DDX21 D126A (human) (UniProt Q9NR30)
T2 sequence: B1 chain with D126A

[3] = target: T3, Flag-tagged DDX21 1–125 (human) (UniProt Q9NR30)
T3 sequence: B4 chain

[4] = target: T4, Flag-tagged DDX21-X1 (wild type, full length) (human) (UniProt Q9NR30)
T4 sequence: B1 chain

Molecule	binding [1]	binding [2]	binding [3]	binding [4]
HA-tagged TRIF (from UniProt Q8IUC6 1-712)	binds weakly	binds		
B1	binds		no binding	binds
B2	binds		no binding	binds
B3	binds weakly	binds		
B4	no binding		no binding	no binding
